# Among all 340,000 compounds or so, about 12,000 (3.5%) were called active. The inconclusive results got no clear call from the source; some entries with a clear call stand among them for comparison. Calls follow the shape of the dose curve; as a rule, active = well fitted inhibition curve with a large enough effect; inconclusive = small, poorly fitted or top-dose-only effect, or another doubt; inactive = no such curve, though single readings can be large or run the other way. Potencies of inconclusive entries are left out as doubtful fits.
# Assay: qHTS Assay for Inhibitors of Hepatitis C Virus (HCV)
# Settings: Huh7.5.1 HCVcc-Cre (HCVcc is cell-culture hepatitis C virus) infection, luciferase reporter, 44 h; activity change, negative = inhibition: at 41.8 µM (top of the series) unless noted
# Summary of the method: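 Whole-lifecycle infectious HCVcc-Cre system; cells 1,000/well, compound then virus (~0.5 moi) added 4 h after plating, 44 h culture. Luciferase read 15 sec following 15 min substrate incubation, room temp.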
# % is scaled to controls: 0 for no effect and ±100 for the full control effect; potency is read from the fitted curve at half-maximal effect; tags tell the direction and shape of the fitted curve.
SMILES,Potency,"activity change, negative = inhibition"
CCOc1ccc(NC(=O)CSCc2cnn(-c3ccccc3)c2-n2cccc2)cc1,"inconclusive [inhibitor, partial curve]",–
COc1cccc(OCC(=O)O/N=C(\N)c2ccc(OC)c(OC)c2)c1,"inconclusive [inhibitor, full curve, poor fit]",–
CC(CC(=O)NC(C)c1ccc2c(c1)OCCO2)c1ccccc1 (configuration not stated),–,inactive: -8.46%
Cc1c(N=C2N=C(NC(=O)Nc3ccc(Cl)cc3)c3ccccc32)c(=O)n(-c2ccccc2)n1C,–,inactive: 1.42%
O=C(CN1C2=NCCCN2c2ccccc21)c1ccc(Cl)cc1Cl,"inconclusive [inhibitor, partial curve]",–
O=S(=O)(c1ccc(Cl)c(NC(=S)N/N=C/c2ccc(O)cc2)c1)N1CCOCC1,"inconclusive [inhibitor, full curve, poor fit]",–
COc1c(S(=O)(=O)N2CCN(C(=O)c3ccco3)CC2)ccc(Cl)c1Cl,–,inactive: -6.54%
CCOC(=O)c1ccc(NC(=O)NC2CC3CCC(C2)N3)cc1 (configuration not stated),active: 17.8 µM,–
O=C(CSc1nnc(-c2cccs2)o1)N1CCCCC1,–,inactive: 6.22%
O=C(NCc1ccco1)c1ccc(Cn2c(=O)c3ccccc3n(Cc3ccc(Cl)cc3)c2=O)cc1,active: 11.2 µM,–
CCOC(=O)C1C(=O)C=C(c2ccc(Br)cc2)CC1c1ccco1 (configuration not stated),–,inactive: -18.5%
COCCn1c(C)cc(C(=O)COC(=O)c2cccc(O)c2)c1C,–,inactive: -16.9%
Cn1c(C(=O)N2CCCC(C(=O)NCCCSC3CCCCC3)C2)cc2sccc21 (configuration not stated),"inconclusive [inhibitor, single point]",–
COc1ccc(C(=O)COC(=O)c2ccc3c(c2)OCO3)c(OC)c1,–,inactive: 2.59%
CC(C)[N+](C)(CCOC(=O)C1c2ccccc2Oc2ccccc21)C(C)C,"inconclusive [inhibitor, single point]",–
N#CCC(=O)Nc1ccc(C(=O)OC(C(=O)Nc2cc(C(F)(F)F)ccc2Cl)c2ccccc2)cc1 (configuration not stated),–,inactive: -38.9%
CC(C)Cc1nc2oc3c(NCCCN4CCOCC4)ncnc3c2c2c1CCC2,active: 10 µM,–
O=C(CSc1cccc[n+]1[O-])c1cc2ccccc2o1,–,inactive: 14.5%
CCO[C@H]1OC(C(=O)N2CCOCC2)=C[C@@H](c2coc3ccccc3c2=O)[C@@H]1CCCO,active: 35.5 µM,–
CCOC(=O)c1c(-c2ccc(F)cc2)csc1NC(=O)CN1C(=O)NC2(CCCCC2C)C1=O (configuration not stated),"inconclusive [inhibitor, single point]",–
Cc1ccccc1NS(=O)(=O)c1cccc(-c2nnc(-c3ccccc3)o2)c1,"inconclusive [inhibitor, single point]",–
CCOC(=O)c1ccc2nc(NC(C)=O)sc2c1,–,inactive: -14%
CCOc1ccc(-n2c(C)cc(/C=N/NC(=O)C(N)=O)c2C)cc1,"inconclusive [inhibitor, single point]",–
CCOc1cc(/C=N/NC(N)=O)ccc1OCC(=O)Nc1ccc(C)c(C)c1,"inconclusive [inhibitor, full curve, poor fit]",–

SMILES,Potency,"activity change, negative = inhibition"
COC(=O)c1cncn1Cc1ccccc1,–,inactive: 10.7%
C=CCC[C@H](Cc1ccc(F)cc1)C(=O)OC[C@H](Cc1c[nH]c2ccccc12)NC(=O)[C@@H](CC=C)CC(=O)NCCO,–,inactive: 7.61%
O=C(Nc1nccs1)c1ccc(COc2ccccc2Cl)o1,"inconclusive [inhibitor, single point]",–
O=c1ccnc2n1COCS2,–,inactive: 21.7%
OCCNc1ncnc2c1c(-c1ccccc1)c(-c1ccccc1)n2Cc1ccco1,"inconclusive [inhibitor, single point]",–
Cc1sc2ncnc(SC(C)C(=O)N3c4ccccc4Sc4ccccc43)c2c1C (configuration not stated),"inconclusive [inhibitor, single point]",–
O=C(COC(=O)/C=C/c1cccc(C(F)(F)F)c1)NCc1ccccc1,–,inactive: 12%
O=C(Cn1nnc(-c2ccccc2)n1)N1CCN(c2ccc(F)cc2)CC1,"inconclusive [inhibitor, partial curve, poor fit]",–
O=C(NC1CC1)c1ccc2c(c1)ncn2C1CCCC1,–,inactive: 2.89%
CCC(C)c1ccc2oc(-c3ccc(NC(=O)Cn4cnc5c(=O)n(C)c(=O)n(C)c54)cc3)nc2c1 (configuration not stated),"inconclusive [inhibitor, single point]",–
CCc1nc(SCc2ccc([N+](=O)[O-])cc2)n[nH]1,–,inactive: 1.31%
CN(CC(=O)Nc1ccc(Cl)c(C(F)(F)F)c1)C(=O)c1ccc(OCC2CCCO2)cc1 (configuration not stated),active: 10 µM,–
CCN(Cc1nc2cc(Cl)ccc2c(=O)[nH]1)C(=O)c1cccc(NC(=O)c2cccs2)c1,"inconclusive [inhibitor, partial curve]",–
Cc1ccc2c(Cl)cc(Cl)c(OCC(=O)NC(=O)NCc3ccco3)c2n1,"inconclusive [inhibitor, single point]",–
CCCN1CCC(N(C)CCc2ccc(OC)c(OC)c2)CC1,"inconclusive [inhibitor, partial curve]",–
CC(=O)OCn1ncc(N2CCOCC2)c(Br)c1=O,–,inactive: 23.2%
Oc1ccc(-c2c(C3=CCCCC3)sc3ccccc23)cc1,"inconclusive [inhibitor, partial curve]",–
Cc1ccc(OCC(=O)Nc2ccc(S(=O)(=O)N(C)C3CCN(C)CC3)cc2)c(C)c1,"inconclusive [inhibitor, single point]",–
CC(C)=CCCC(C)CN1CCC(n2nccc2NC(=O)c2ccc3c(c2)OCO3)CC1 (configuration not stated),"inconclusive [inhibitor, partial curve]",–
Cc1ccc(NC(=O)CCc2ccc(S(=O)(=O)N3CCOCC3)cc2)c(O)c1,–,inconclusive: -40.7% [inhibitor]
CCOc1ccccc1-n1c(SCC(N)=O)nnc1-c1cccnc1,–,inactive: 13.4%
Cc1ccc(NC(=S)N/N=C/c2ccc([N+](=O)[O-])s2)cc1,"inconclusive [inhibitor, single point]",–
CN(CCOc1ccccc1)C(=O)c1cc(S(=O)(=O)N2CCOCC2)ccc1Cl,"inconclusive [inhibitor, single point]",–

# — PubChem BioAssay AID651820 (National Center for Advancing Translational Sciences (NCATS), 2012)
